The list shows a part of the results. Shown are side measurements of this screen, not its main read-out; they come without a call.
How the values were obtained:
Experiment in all cases: Primary Screen for Target Class Profiling of Small Molecule Inhibitors of Methyltransferases
[1] = target: Glycine N-methyltransferase (Homo sapiens) (UniProt Q14749); settings: purified enzyme, MTase-Glo SAH luminescence; measured here: GNMT inhibition; at 40 µM; stronger effect = lower value
How it was run: (§1)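 Each enzyme was assayed with SAM and its substrate. SAH formation detected by MTase-Glo luminescence; single-point 40 uM screen[…].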

[2] = target: Guanidinoacetate N-methyltransferase (Homo sapiens) (UniProt Q14353); settings: purified enzyme, MTase-Glo SAH luminescence; measured here: GAMT inhibition; at 40 µM; stronger effect = lower value
How it was run: as §1

[3] = target: Histamine N-methyltransferase (Homo sapiens) (UniProt P50135); settings: purified enzyme, MTase-Glo SAH luminescence; measured here: HNMT inhibition; at 40 µM; stronger effect = lower value
How it was run: as §1

[4] = target: Nicotinamide N-methyltransferase (Homo sapiens) (UniProt P40261); settings: purified enzyme, MTase-Glo SAH luminescence; measured here: NNMT inhibition; at 40 µM; stronger effect = lower value
How it was run: as §1

[5] = target: Phenylethanolamine N-methyltransferase (Homo sapiens) (UniProt P11086); settings: purified enzyme, MTase-Glo SAH luminescence; measured here: PNMT inhibition; at 40 µM; stronger effect = lower value
How it was run: as §1
% is scaled to controls: 0 for no effect and ±100 for the full control effect.

| SMILES | activity change, negative = inhibition [1] | activity change, negative = inhibition [2] | activity change, negative = inhibition [3] | activity change, negative = inhibition [4] | activity change, negative = inhibition [5] |
| --- | --- | --- | --- | --- | --- |
| CCN1CCC2(CCC1=O)CN(Cc1nc(C(=O)NC)no1)CCN2C (stereo not drawn) | 1.37% | -2.5% | 1.85% | -0.771% | 3.49% |
| N#Cc1ccc2ncnc(NCCc3ccccc3)c2c1 | -21.1% | 2.17% | 2.74% | -10.7% | -4.49% |
| COC(=O)c1cc2n(n1)CC(C)(C(=O)NC1CCC(C)CC1)N(Cc1ccccc1Cl)C2=O (stereo not drawn) | 1.63% | 2.76% | 5.84% | -3.86% | -0.573% |
| COc1ccc(Cl)cc1NS(=O)(=O)c1ccc2[nH]c(=O)[nH]c2c1 | 3.83% | 0.975% | 3.56% | -1.76% | -3.82% |
| COc1cc(Cl)c(C)cc1NS(=O)(=O)c1ccc2c(c1)n(C)c(=O)n2C | 9.3% | 0% | 5.35% | -7.49% | 2.33% |
| CCCSCCCNC(=O)c1cc2n(n1)CC(C)(C(=O)NCc1ccc(F)cc1)N(C)C2=O (stereo not drawn) | 1.85% | 0% | -3.49% | 6.49% | 3.23% |
| CN(C)C[C@@H]1CN(C)C[C@H]1NC(=O)NCc1ccc(OC(F)(F)F)cc1 | -1.86% | -4.84% | -2.29% | -13.1% | -2.26% |
| COc1ccccc1-c1cc(C(=O)N2CCN(c3ncccn3)CC2)nn2cccc12 | -2.21% | -5.06% | 0.238% | -9.32% | -7.47% |
| O=[N+]([O-])c1ccc(Nc2nc(N3CCOCC3)nc(N3CCOCC3)n2)cc1 | – | -1.52% | – | -12.1% | 3.83% |
| CC1(C)O[C@H]2CC(=O)OC[C@@]23C1=C(O)C(=O)[C@]1(C)C3CC[C@@]2(C)[C@H](c3ccoc3)OC(=O)[C@H]3O[C@]321 (stereo partly drawn) | 0% | -4.9% | 0.588% | -16% | 0.298% |
| CS(=O)(=O)N(Cc1cccnc1)C1CN(C(=O)C2CCCCC2)C1 | -5.59% | -10.5% | -3.26% | -8.78% | -1.63% |
| Cc1ccccc1CN1C(=O)c2cc3sccc3n2CC1(C)C(=O)NC1CCCCCC1 (stereo not drawn) | 0.497% | 6.22% | 3.52% | 6.07% | -0.313% |
| O=C(c1nc2ncccn2n1)N1CCCn2cc(-c3ccccc3)nc21 | -4.72% | -8.4% | -12.1% | -11.2% | -10.2% |
| CCCCOc1cc(C(=O)OCCN(CC)CC)ccc1N | 6.19% | 5.71% | 2.17% | -8.37% | 2.67% |
| Cc1cnc(C(=O)N2CCC3(CC2)C(=O)N(c2cccc(F)c2)C3c2ccccc2)cn1 (stereo not drawn) | -3.37% | 0.012% | -1.64% | -8.08% | -1.2% |
| Cc1nc2n(c(=O)c1CCN1CCC(c3noc4cc(F)ccc34)CC1)CCC[C@H]2O | 6.8% | 2.54% | 5.24% | -13.9% | 0.385% |
| COc1ccccc1CNC(=O)CCc1nnc2n(CCc3ccccc3)c(=O)c3ccccc3n12 | -6.06% | 0.917% | 3.98% | 6.87% | -5.15% |
| C/C=C/C1=CC2=CC(=O)C(C)(O)C(OC(=O)c3c(C)cc(O)cc3O)C2CO1 (stereo not drawn) | 0% | 1.38% | 4.44% | -7.97% | 2.31% |
| COC(=O)c1cc2n(n1)CC(C)(C(=O)NC1CCCCCC1)N(c1cccc(F)c1)C2=O (stereo not drawn) | 1.76% | 0% | 3.66% | 2.56% | 0.408% |
| COC(=O)[C@H](NC(=O)[C@@H]1[C@@H](NC(=O)Nc2ccc(F)cc2F)CCN1C(=O)CSC)C(C)C | -5.85% | -7.41% | -5.4% | -12.8% | -7.61% |
| CC(C)Cn1c(=O)c2ccc(C(=O)NC3CCCCC3)cc2n2c(=O)n(C)nc12 | 5.7% | 0.265% | 2.73% | 2.73% | 2.46% |
| Cn1ccc(C(=O)NCc2nnc3n2C(C(=O)N2CCN(c4ncccn4)CC2)CC3)n1 (stereo not drawn) | -6.17% | -5.08% | -0.117% | -6.71% | 5.29% |
| COc1ccccc1CCNC(=O)CCCn1ccc2cc(S(=O)(=O)N3CCCC3)ccc21 | 5.04% | 7.18% | 0.482% | 2.65% | 1.54% |
| CCC(C)c1ccc(NC(=O)Cn2cnc3c2c(=O)n(C)c(=O)n3C)cc1 (stereo not drawn) | -3.35% | -0.955% | 8.8% | -30.8% | 0.507% |
| O[C@@](Cc1ncc(CC2(C(F)(F)F)CC2)[nH]1)(c1ccc(-n2cccn2)cc1)C(F)(F)F | -12.1% | -14.4% | 12.7% | -28.3% | -4.35% |
| CC1CCCC(NC(=O)C2(C)Cn3c(nc4ccccc43)C(=O)N2Cc2ccccc2F)C1C (stereo not drawn) | 3.21% | 0.875% | 2.24% | 1.8% | 1.34% |
| CC(C)[C@@H]1C(=O)N(S(C)(=O)=O)[C@@H]2CCN(C(=O)/C=C/CN3CCCCC3)[C@H]21 | 8.79% | 4.72% | 2.67% | -8.8% | 3.04% |
| Cc1ccc(NC(=O)c2cc3n(n2)CC(C)(C(=O)NC2CCCCCC2)N(C)C3=O)cc1Cl (stereo not drawn) | -1.75% | 4.01% | -0.117% | 3.47% | 0.917% |
| COC(=O)C1=CN(CC(=O)N2CCN(c3ccc(F)cc3)CC2)S(=O)(=O)N=C1C | 0.045% | -0.502% | 2.55% | -1.88% | 10.9% |
| CC(=O)O[C@H]1[C@@]2(O)C[C@H](C)[C@H](OC(=O)c3ccccc3)[C@@H]2[C@@H](OC(=O)CO)[C@]2(OC(C)=O)C[C@H]3C(=O)C(C)(C)C[C@@H]3[C@@]1(C)[C@H]2OC(C)=O | 4.54% | -6.53% | 6.14% | -15% | -11.5% |

From PubChem BioAssay AID1745853 (National Center for Advancing Translational Sciences (NCATS), 2022)
